From the supplement of paper PMC12217912
The other results are listed elsewhere or left out. The full chains were built here from the parent and the listed change. Values near 0.05 are background.

B1: TEV protease; numbered along this chain (parent)
chain: MGESLFKGPRDYNPISSSICHLTNESDGHTTSLYGIGFGPFIITNKHLFRRNNGTLVVQSLHGVFKVKDTTTLQQHLVDGRDMIIIRMPKDFPPFPQKLKFREPQREERICLVTTNFQTKSMSSMVSDTSCTFPSGDGIFWKHWIQTKDGQCGSPLVSTRDGFIVGIHSASNFTNTNNYFTSVPKNFMELLTNQEAQQWVSGWRLNADSVLWGGHKVFMVKPEEPFQPVKEATQL

Variants of: B1
Assay: raw area under fraction-flipped curve 0-4 h after induction (AUC4h, not background-subtracted), DNA-recorder readout of cleavage of the substrate (dimensionless); higher = more cleavage of the substrate by the protease variant
Settings: temperature: 34 °C; time window: 0-4 h after rhamnose induction
Protocol: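 In vivo DNA recorder in E. coli TOP10(DE3) ΔrhaA at 34 °C. Each TEVp single-site mutant (parent TEVp 0) is paired with a single-site variant of the 7-mer TEVs (canonical ENLYFQ|S). The substrate sits between flexible linkers in a Bxb1-sfGFP-TEVs-SsrA fusion, so cleavage stabilises Bxb1 and speeds flipping of a recombination array, read by NGS. The value is the raw area under the fraction-flipped curve over 0-4 h after rhamnose induction (AUC4h), with ≥20 reads per time point. It is not background-subtracted; inactive controls average about 0.047.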
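Further: Bxb1 expression induced with 0.2% (w/v) L-rhamnose at OD600 near 0.5, cultures sampled hourly, flipped fraction per protease–substrate barcode pair counted by paired-end Illumina sequencing.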

Row | Variant | area with substrate ENLYFAS | area with substrate ENLYFES | area with substrate ENLYFFS | area with substrate ENLYFGS | area with substrate ENLYFHS | area with substrate ENLYFIS | area with substrate ENLYFKS | area with substrate ENLYFLS | area with substrate ENLYFMS | area with substrate ENLYFNS | area with substrate ENLYFPS | area with substrate ENLYFRS | area with substrate ENLYFSS | area with substrate ENLYFTS | area with substrate ENLYFWS | area with substrate ENLYFYS | area with substrate ENLYFDS | area with substrate ENLYFVS | area with substrate ENLYFCS
1 | MGESLFKGPRDYNPISSSICHLTNESDGHTTSLYGIGFGPFIITNKHLFRRNNGTLVVQSLHGVFKVKDTTTLQQHLVDGRDMIIIRMPKDFPPFPQKLKFREPQREERICLVTTNFQTKSMSSMVSDTSCTFPSGDGIFWKHWIQTKDRQCGSPLVSTRDGFIVGIHSASNFTNTNNYFTSVPKNFMELLTNQEAQQWVSGWRLNADSVLWGGHKVFMVKPEEPFQPVKEATQL [G150R] | 0.0611 | 0.0556 | 0.0704 | 0.0513 | 0.0651 | 0.0574 | 0.0576 | 0.0597 | 0.0621 | 0.0721 | 0.0651 | 0.0502 | 0.061 | 0.0595 | 0.0474 | 0.0565 | – | – | –
2 | MGESLFKGPRDYNPISSSICHLTNESDGHTTSLYGIGFGPFIITNKHLFRRNNGTLVVQSLHGVFKVKDTTTLQQHLVDGRDMIIIRMPKDFPPFPQKLKFREPQREERICLVTTNFQTKSMSSMVSDTSCTFPSGDGIFWKHWIQTKDKQCGSPLVSTRDGFIVGIHSASNFTNTNNYFTSVPKNFMELLTNQEAQQWVSGWRLNADSVLWGGHKVFMVKPEEPFQPVKEATQL [G150K] | 0.0598 | 0.061 | 0.0641 | – | – | 0.0549 | 0.0619 | 0.0471 | 0.063 | – | 0.0508 | 0.0543 | 0.0559 | 0.0544 | – | 0.0519 | 0.0559 | 0.0683 | –
3 | MGESLFKGPRDYNPISSSICHLTNESDGHTTSLYGIGFGPFIITNKHLFRRNNGTLVVQSLHGVFKVKDTTTLQQHLVDGRDMIIIRMPKDFPPFPQKLKFREPQREERICLVTTNFQTKSMSSMVSDTSCTFPSGDGIFWKHWIQTKDGQCGSPLVSTRDMFIVGIHSASNFTNTNNYFTSVPKNFMELLTNQEAQQWVSGWRLNADSVLWGGHKVFMVKPEEPFQPVKEATQL [G162M] | 0.0496 | 0.0647 | 0.0421 | 0.055 | 0.0639 | 0.0477 | 0.0636 | 0.0471 | 0.0662 | 0.0662 | 0.0461 | – | 0.0531 | 0.0613 | 0.0735 | – | – | – | 0.0572
4 | MGESLFKGPRDYNPISSSICHLTNESDGHTTSLYGIGFGPFIITNKHLFRRNNGTLVVQSLHGVFKVKDTTTLQQHLVDGRDMIIIRMPKDFPPFPQKLKFREPQREERICLVTTNFQTKSMSSMVSDTSCTFPSGDGIFWKHWIQTKDGQSGSPLVSTRDGFIVGIHSASNFTNTNNYFTSVPKNFMELLTNQEAQQWVSGWRLNADSVLWGGHKVFMVKPEEPFQPVKEATQL [C152S] | 0.0504 | 0.0626 | – | 0.0598 | – | 0.0464 | – | – | 0.0536 | 0.0531 | 0.0562 | 0.061 | 0.0519 | 0.0613 | – | – | – | 0.0361 | 0.0597
5 | MGESLFKGPRDYNPISSSICHLTNESDGHTTSLYGIGFGPFIITNKHLFRRNNGTLVVQSLHGVFKVKDTTTLQQHLVDGRDMIIIRMPKDFPPFPQKLKFREPQREERICLVTTNFQTKSMSSMVSDTSCTFPSGDGIFWKHWIQTKDGQCGSPWVSTRDGFIVGIHSASNFTNTNNYFTSVPKNFMELLTNQEAQQWVSGWRLNADSVLWGGHKVFMVKPEEPFQPVKEATQL [L156W] | 0.0564 | 0.0662 | 0.0692 | 0.0643 | 0.0612 | 0.0627 | 0.0474 | 0.0569 | 0.0631 | 0.0564 | 0.0494 | 0.0637 | 0.0435 | 0.0681 | – | 0.061 | 0.0547 | 0.0629 | 0.0521
6 | MGESLFKGPRDYNPISSSICHLTNESDGHTTSLYGIGFGPFIITNKHLFRRNNGTLVVQSLHGVFKVKDTTTLQQHLVDGRDMIIIRMPKDFPPFPQKLKFREPQREERICLVTTNFQTKSMSSMVSDTSCTFPSGDGIFWKHWIQTKDGQCGSPLVSTRDGFIVGTHSASNFTNTNNYFTSVPKNFMELLTNQEAQQWVSGWRLNADSVLWGGHKVFMVKPEEPFQPVKEATQL [I167T] | 0.0741 | – | 0.0721 | 0.0684 | 0.0588 | 0.0489 | 0.0516 | – | 0.0684 | 0.059 | 0.0784 | 0.0644 | – | – | – | 0.0467 | – | 0.0568 | –
7 | MGESLFKGPRDYNPISSSICHLTNESDGHTTSLYGIGFGPFIITNKHLFRRNNGTLVVQSLHGVFKVKDTTTLQQHLVDGRDMIIIRMPKDFPPFPQKLKFREPQREERICLVTTNFQTKSMSSMVSDTSCTFPSGDGIFWKHWIQTKDGQCGSPLVSTRDGFIVGWHSASNFTNTNNYFTSVPKNFMELLTNQEAQQWVSGWRLNADSVLWGGHKVFMVKPEEPFQPVKEATQL [I167W] | 0.0633 | 0.0408 | 0.0723 | 0.0463 | 0.0609 | 0.0553 | 0.0567 | 0.0632 | 0.0596 | – | 0.0538 | 0.0621 | 0.0611 | 0.0469 | 0.07 | 0.0609 | – | 0.0656 | 0.0457
8 | MGESLFKGPRDYNPISSSICHLTNESDGHTTSLYGIGFGPFIITNKHLFRRNNGTLVVQSLHGVFKVKDTTTLQQHLVDGRDMIIIRMPKDFPPFPQKLKFREPQREERICLVTTNFQTKSMSSMVSDTSCTFPSGDGIFWKHWIQTKDGQCGSALVSTRDGFIVGIHSASNFTNTNNYFTSVPKNFMELLTNQEAQQWVSGWRLNADSVLWGGHKVFMVKPEEPFQPVKEATQL [P155A] | 0.0519 | 0.0791 | 0.0656 | – | 0.0494 | 0.0566 | 0.0607 | 0.0558 | 0.0673 | 0.0567 | 0.0642 | – | 0.0857 | – | 0.0536 | 0.0547 | – | 0.0683 | 0.0592
9 | MGESLFKGPRDYNPISSSICHLTNESDGHTTSLYGIGFGPFIITNKHLFRRNNGTLVVQSLHGVFKVKDTTTLQQHLVDGRDMIIIRMPKDFPPFPQKLKFREPQREERICLVTTNFQTKSMSSMVSDTSCTFPSGDGIFWKHWIQTKDGQCGSLLVSTRDGFIVGIHSASNFTNTNNYFTSVPKNFMELLTNQEAQQWVSGWRLNADSVLWGGHKVFMVKPEEPFQPVKEATQL [P155L] | 0.0566 | 0.0496 | 0.0633 | 0.0492 | 0.0492 | 0.0558 | 0.0527 | 0.0532 | 0.0167 | 0.0596 | 0.049 | 0.0533 | 0.059 | 0.08 | 0.055 | 0.0497 | 0.0521 | 0.0435 | 0.0464
